The other results are listed elsewhere or left out.
Experiments:
Experiment in all cases: glycan array binding signal (z-score within array); higher = stronger binding
Details in all cases: glycan notation: IUPAC condensed, linker removed
[1] = target: Fuc(a1-2)Gal(b1-4)GlcNAc(b1-3)Gal(b1-4)GlcNAc(b1-3)Gal(b1-4)GlcNAc
Outline: (§1)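 Arrays were curated from the Consortium for Functional Glycomics database, 3228 in total, and kept only where the protein sequence was available. Binding is expressed as a within-array Z-score. This score was averaged across arrays of the same protein sequence at different concentrations or buffers and across linkers, and negative values can be read as non-binding.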

[2] = target: Fuc(a1-2)Gal(b1-4)GlcNAc(b1-3)GalNAc
Outline: as §1

[3] = target: Fuc(a1-2)Gal(b1-4)GlcNAc(b1-3)[Fuc(a1-2)Gal(b1-4)GlcNAc(b1-6)]GalNAc
Outline: as §1

[4] = target: Fuc(a1-2)Gal(b1-4)GlcNAc(b1-3)[Fuc(a1-3)[Gal(b1-4)]GlcNAc(b1-6)]Gal(b1-4)Glc
Outline: as §1

[5] = target: Fuc(a1-2)Gal(b1-4)GlcNAc(b1-6)GalNAc
Outline: as §1

[6] = target: Fuc(a1-2)Gal(b1-4)GlcNAc6S
Outline: as §1

[7] = target: Fuc(a1-2)Gal(b1-4)[Fuc(a1-3)]GlcNAc
Outline: as §1

[8] = target: Fuc(a1-2)Gal(b1-4)[Fuc(a1-3)]GlcNAc(b1-2)Man(a1-3)[Fuc(a1-2)Gal(b1-4)[Fuc(a1-3)]GlcNAc(b1-2)Man(a1-6)]Man(b1-4)GlcNAc(b1-4)[Fuc(a1-6)]GlcNAc
Outline: as §1

[9] = target: Fuc(a1-2)Gal(b1-4)[Fuc(a1-3)]GlcNAc(b1-2)[Fuc(a1-2)Gal(b1-4)[Fuc(a1-3)]GlcNAc(b1-4)]Man(a1-3)[Fuc(a1-2)Gal(b1-4)[Fuc(a1-3)]GlcNAc(b1-2)Man(a1-6)]Man(b1-4)GlcNAc(b1-4)GlcNAc
Outline: as §1

[10] = target: Fuc(a1-2)Gal(b1-4)[Fuc(a1-3)]GlcNAc(b1-3)Gal(b1-4)[Fuc(a1-3)]GlcNAc
Outline: as §1

[11] = target: Fuc(a1-2)Gal(b1-4)[Fuc(a1-3)]GlcNAc(b1-3)Gal(b1-4)[Fuc(a1-3)]GlcNAc(b1-3)Gal(b1-4)[Fuc(a1-3)]GlcNAc
Outline: as §1

[12] = target: Fuc(a1-2)Gal(b1-4)[Fuc(a1-3)]GlcNAc(b1-3)GalNAc
Outline: as §1

[13] = target: Fuc(a1-2)Gal(b1-4)[Fuc(a1-3)]GlcNAc(b1-3)[Neu5Ac(a2-6)Gal(b1-4)GlcNAc(b1-6)]Gal(b1-4)Glc
Outline: as §1

[14] = target: Fuc(a1-2)Gal3S(b1-4)GlcNAc
Outline: as §1

[15] = target: Fuc(a1-2)Gal6S(b1-3)GlcNAc
Outline: as §1

[16] = target: Fuc(a1-2)Gal6S(b1-3)GlcNAc6S
Outline: as §1

[17] = target: Fuc(a1-2)Gal6S(b1-4)Glc
Outline: as §1

[18] = target: Fuc(a1-2)Gal6S(b1-4)Glc6S
Outline: as §1

[19] = target: Fuc(a1-2)[Gal(a1-3)]Gal
Outline: as §1

[20] = target: Fuc(a1-2)[Gal(a1-3)]Gal(b1-3)GalNAc
Outline: as §1

[21] = target: Fuc(a1-2)[Gal(a1-3)]Gal(b1-3)GalNAc(b1-3)Gal(a1-4)Gal(b1-4)Glc
Outline: as §1

[22] = target: Fuc(a1-2)[Gal(a1-3)]Gal(b1-3)GlcNAc
Outline: as §1

[23] = target: Fuc(a1-2)[Gal(a1-3)]Gal(b1-3)GlcNAc(b1-2)Man(a1-3)[Fuc(a1-2)[Gal(a1-3)]Gal(b1-3)GlcNAc(b1-2)Man(a1-6)]Man(b1-4)GlcNAc(b1-4)GlcNAc
Outline: as §1

[24] = target: Fuc(a1-2)[Gal(a1-3)]Gal(b1-3)GlcNAc(b1-2)Man(a1-3)[Fuc(a1-2)[Gal(a1-3)]Gal(b1-3)GlcNAc(b1-2)Man(a1-6)]Man(b1-4)GlcNAc(b1-4)[Fuc(a1-6)]GlcNAc
Outline: as §1

[25] = target: Fuc(a1-2)[Gal(a1-3)]Gal(b1-3)GlcNAc(b1-3)GalNAc
Outline: as §1

[26] = target: Fuc(a1-2)[Gal(a1-3)]Gal(b1-3)GlcNAc(b1-6)GalNAc
Outline: as §1

[27] = target: Fuc(a1-2)[Gal(a1-3)]Gal(b1-4)Glc
Outline: as §1

[28] = target: Fuc(a1-2)[Gal(a1-3)]Gal(b1-4)GlcNAc
Outline: as §1

[29] = target: Fuc(a1-2)[Gal(a1-3)]Gal(b1-4)GlcNAc(b1-2)Man
Outline: as §1

[30] = target: Fuc(a1-2)[Gal(a1-3)]Gal(b1-4)GlcNAc(b1-2)Man(a1-3)[Fuc(a1-2)[Gal(a1-3)]Gal(b1-4)GlcNAc(b1-2)Man(a1-6)]Man(b1-4)GlcNAc(b1-4)GlcNAc
Outline: as §1

B1: PLU (Photorhabdus luminiscence) (protein)
chain: HHHHHHENLYFQSSIVFASIDPRSNPLQTSSQNYVDIPGLKLDVSKYSNSPCLTALITLNIPTPYASGNNFPGGNFAIVTDQGEQLAYGGFTYSSKIPENSGRMPFTLVARYSLASNVSTIKAQWSNIRGSTVHIDSYASISAVIQCNQLV
Question: Which “glycan array binding signal (z-score)” value [1] does the source give for B1 here?
Answer: The value was 1.92.

Question: And the “glycan array binding signal (z-score)” value [2]?
Answer: The value was -0.262.

Question: And the “glycan array binding signal (z-score)” value [3]?
Answer: Its value is -0.21.

Question: What about the “glycan array binding signal (z-score)” value [4] of the same binder?
Answer: Its value is -0.179.

Question: And the “glycan array binding signal (z-score)” value [5]?
Answer: The value was -0.243.

Question: And the “glycan array binding signal (z-score)” value [6]?
Answer: The value was -0.234.

Question: What about the “glycan array binding signal (z-score)” value [7] of the same binder?
Answer: The value was 3.55.

Question: What about the “glycan array binding signal (z-score)” value [8] of the same binder?
Answer: Its value is 0.621.

Question: And the “glycan array binding signal (z-score)” value [9]?
Answer: The value was -0.224.

Question: And the “glycan array binding signal (z-score)” value [10]?
Answer: The value was 3.58.

Question: And the “glycan array binding signal (z-score)” value [11]?
Answer: Its value is 5.21.

Question: What about the “glycan array binding signal (z-score)” value [12] of the same binder?
Answer: Its value is -0.253.

Question: And the “glycan array binding signal (z-score)” value [13]?
Answer: Its value is 0.118.

Question: What about the “glycan array binding signal (z-score)” value [14] of the same binder?
Answer: Its value is 1.37.

Question: And the “glycan array binding signal (z-score)” value [15]?
Answer: The value was -0.284.

Question: And the “glycan array binding signal (z-score)” value [16]?
Answer: Its value is -0.318.

Question: And the “glycan array binding signal (z-score)” value [17]?
Answer: Its value is 2.23.

Question: What about the “glycan array binding signal (z-score)” value [18] of the same binder?
Answer: Its value is -0.348.

Question: And the “glycan array binding signal (z-score)” value [19]?
Answer: The value was 3.17.

Question: And the “glycan array binding signal (z-score)” value [20]?
Answer: Its value is 2.9.

Question: And the “glycan array binding signal (z-score)” value [21]?
Answer: Its value is 0.036.

Question: What about the “glycan array binding signal (z-score)” value [22] of the same binder?
Answer: The value was 4.43.

Question: And the “glycan array binding signal (z-score)” value [23]?
Answer: The value was 2.12.

Question: And the “glycan array binding signal (z-score)” value [24]?
Answer: The value was 0.23.

Question: What about the “glycan array binding signal (z-score)” value [25] of the same binder?
Answer: The value was -0.324.

Question: And the “glycan array binding signal (z-score)” value [26]?
Answer: The value was -0.187.

Question: And the “glycan array binding signal (z-score)” value [27]?
Answer: Its value is 3.43.

Question: And the “glycan array binding signal (z-score)” value [28]?
Answer: Its value is 3.83.

Question: And the “glycan array binding signal (z-score)” value [29]?
Answer: Its value is 2.31.

Question: What about the “glycan array binding signal (z-score)” value [30] of the same binder?
Answer: The value was 3.78.

Source: the supplement of paper PMC8728848
